One compound from patent publication US7414110B2, “Human calcium channel compositions and methods” (Merck & Co., Inc., priority 1990, dated 2008) can be followed below.

This experiment addresses T1, human neuronal calcium channel α1D subunit (Homo sapiens, UniProt Q01668, S1346F/Y1433H).
T1 construct: Portions of these partial cDNA clones were ligated to generate a full-length α1D cDNA in a eukaryotic expression vector; expressed in transfected cells; host or cells: HEK 293 cells, transient
An excerpt: Pflugers Arch. 391:85-100].

T1 sequence (Q01668 whole entry S1346F/Y1433H): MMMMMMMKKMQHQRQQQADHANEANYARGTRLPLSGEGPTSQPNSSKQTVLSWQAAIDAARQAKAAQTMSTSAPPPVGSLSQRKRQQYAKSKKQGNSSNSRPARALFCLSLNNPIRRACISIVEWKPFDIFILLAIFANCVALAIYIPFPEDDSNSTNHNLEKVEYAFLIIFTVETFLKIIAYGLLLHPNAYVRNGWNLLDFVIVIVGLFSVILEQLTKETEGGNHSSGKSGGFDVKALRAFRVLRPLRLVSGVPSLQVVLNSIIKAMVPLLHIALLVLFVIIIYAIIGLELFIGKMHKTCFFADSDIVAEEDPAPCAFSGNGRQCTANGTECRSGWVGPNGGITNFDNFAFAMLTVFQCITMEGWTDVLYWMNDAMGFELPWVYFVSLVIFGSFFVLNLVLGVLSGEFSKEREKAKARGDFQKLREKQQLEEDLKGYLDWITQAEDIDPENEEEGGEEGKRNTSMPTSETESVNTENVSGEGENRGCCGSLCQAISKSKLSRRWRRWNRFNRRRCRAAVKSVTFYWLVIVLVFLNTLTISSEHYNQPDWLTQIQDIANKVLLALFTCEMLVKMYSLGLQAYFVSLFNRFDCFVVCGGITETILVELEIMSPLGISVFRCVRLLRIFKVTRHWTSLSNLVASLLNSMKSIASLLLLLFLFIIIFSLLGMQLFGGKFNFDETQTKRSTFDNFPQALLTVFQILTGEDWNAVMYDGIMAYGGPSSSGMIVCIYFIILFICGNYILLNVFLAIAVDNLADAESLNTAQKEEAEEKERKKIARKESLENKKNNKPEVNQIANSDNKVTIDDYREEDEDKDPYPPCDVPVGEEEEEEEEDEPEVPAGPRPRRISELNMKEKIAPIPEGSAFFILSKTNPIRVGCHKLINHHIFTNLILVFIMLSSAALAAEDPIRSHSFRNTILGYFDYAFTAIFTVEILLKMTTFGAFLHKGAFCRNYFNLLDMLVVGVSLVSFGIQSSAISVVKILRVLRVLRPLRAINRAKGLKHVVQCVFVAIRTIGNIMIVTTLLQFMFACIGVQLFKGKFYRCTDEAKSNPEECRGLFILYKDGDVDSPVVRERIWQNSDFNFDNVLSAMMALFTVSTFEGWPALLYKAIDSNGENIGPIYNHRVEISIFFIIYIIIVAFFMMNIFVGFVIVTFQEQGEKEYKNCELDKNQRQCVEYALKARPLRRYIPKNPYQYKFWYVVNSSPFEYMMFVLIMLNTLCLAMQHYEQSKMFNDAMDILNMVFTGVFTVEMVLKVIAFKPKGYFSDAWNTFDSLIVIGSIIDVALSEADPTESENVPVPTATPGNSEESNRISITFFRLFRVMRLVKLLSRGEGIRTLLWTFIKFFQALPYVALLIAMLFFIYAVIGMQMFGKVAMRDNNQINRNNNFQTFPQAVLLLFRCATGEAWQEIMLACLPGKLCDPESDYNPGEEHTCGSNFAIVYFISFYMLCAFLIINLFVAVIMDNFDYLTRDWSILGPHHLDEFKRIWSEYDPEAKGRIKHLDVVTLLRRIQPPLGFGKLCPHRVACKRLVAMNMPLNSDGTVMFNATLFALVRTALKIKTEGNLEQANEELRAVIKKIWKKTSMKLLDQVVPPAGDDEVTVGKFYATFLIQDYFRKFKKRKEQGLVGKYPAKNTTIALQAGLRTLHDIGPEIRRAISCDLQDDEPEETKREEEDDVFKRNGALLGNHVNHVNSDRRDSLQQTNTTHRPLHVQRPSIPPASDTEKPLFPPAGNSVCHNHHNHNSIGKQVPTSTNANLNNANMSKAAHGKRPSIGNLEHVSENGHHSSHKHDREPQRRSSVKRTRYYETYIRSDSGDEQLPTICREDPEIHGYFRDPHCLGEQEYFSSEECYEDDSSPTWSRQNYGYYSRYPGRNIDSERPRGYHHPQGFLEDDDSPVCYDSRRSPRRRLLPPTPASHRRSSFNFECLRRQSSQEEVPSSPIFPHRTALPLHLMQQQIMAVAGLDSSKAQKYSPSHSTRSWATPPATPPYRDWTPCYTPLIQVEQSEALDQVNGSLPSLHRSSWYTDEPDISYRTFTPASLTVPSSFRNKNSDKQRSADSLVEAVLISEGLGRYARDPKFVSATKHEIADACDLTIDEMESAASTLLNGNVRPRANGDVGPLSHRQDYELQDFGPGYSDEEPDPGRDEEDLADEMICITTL

In the case of `COC(=O)C1=C(C)NC(C)=C([N+](=O)[O-])C1c1ccccc1C(F)(F)F` (centres unmarked) [Bay K 8644], the “amplification of 30 pA inward barium current” value is 2 fold and the tail currents result is listed as “small tail currents were detected”.
